The other results are listed elsewhere or left out.
Test system: PfSIP2 AP2 domain 1 (GST-tagged)
Assay: gcPBM binding intensity (ln(normalized median fluorescence intensity)); higher = stronger DNA binding
Outline: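 GST-fused DNA-binding domains of P. falciparum, expressed in E. coli, were applied at about 25 μg on average for 1 h to an Agilent 4 × 180k array of primer-extended double-stranded 36-bp intergenic genomic probes and negative controls. Binding intensity is the highest Masliner-normalised natural-log median intensity across replicate spots of either probe orientation, measured with Alexa488 anti-GST antibody and a 488 nm scan.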

Going from “TATAGAAGCATTCACACACACACATACATACACATA [CACACA_site1466]” to “TAACAAAAAGGGAACACATGCGCTCTTTATTTATTT [TGCATGCA_site620]”, the “gcPBM binding intensity (ln)” value falls from 7.15 to 6.68.

First: TATTATAGAAATTTAATGTTGGACAAAAAAATGAAA [CACACA_negctrl_site1351]
Second: TCTTAATATCGTTTCTCACACATATACAAACATAAA [CACACA_site5700]
The “gcPBM binding intensity (ln)” value of the first is lower: 7.09 for the first, 7.47 for the second.

First: AATATATGAATTATATGTACATATAGATAAGTCACA [XGTACX_site7637]
Second: AGAGAGAAAGCTATAACATGCAACAATTTTTAGAAC [TGCATGCA_site596]
The “gcPBM binding intensity (ln)” value of the first is higher: 7.22 for the first, 7.05 for the second.

Going from “AAATTATTTATTTTATGTACATATTATTAAAGTTAA [XGTACX_site552]” to “ATAAATGACAAATTAACACACATATATTATAGATAT [CACACA_site7770]”, the “gcPBM binding intensity (ln)” value falls from 7.37 to 6.86.

First: ATCTATATTTAATTTACACACAAAAAAAATTGTTGG [CACACA_site6582]
Second: AAAATGTGATATGTAAATATATATGTATGTATATAT [CACACA_negctrl_site1748]
The “gcPBM binding intensity (ln)” value of the first is lower: 6.96 for the first, 7.09 for the second.

Compared with “TAATGCATTTTCGCATGTACATATTTCTCTTTATAT [XGTACX_site8915]”, “GTTTGGTGGTGTTTTGGTACGTACGGGGGGGTATGT [XGTACX_site1983]” is higher in “gcPBM binding intensity (ln)” value: 7 for the first, 9.74 for the second.

Going from “TTTTTTTTTTTTTATTGTACTTATTTTTTTATGTTT [XGTACX_site7725]” to “GTATTATATATATAGGTGCATATATATATATAAATA [GTGCAC_site9787]”, the “gcPBM binding intensity (ln)” value rises from 7.59 to 10.8.

Compared with “AAATATAAAGGATTAATATTATATATATATATATAT [XGTACX_negctrl_site211]”, “ACACATACATATACATACACATTGTTTTCATGCATC [XGTACX_negctrl_site126]” is lower in “gcPBM binding intensity (ln)” value: 9.18 for the first, 7.64 for the second.

First: TATATGTGTCTACAGGTGCATATATCATATATTGCT
Second: TAAATAAATTTATACACACACACACGGATATAAATA [CACACA_site6532]
The “gcPBM binding intensity (ln)” value of the first is higher: 9.84 for the first, 7.08 for the second.

Going from “TATAAATATTTATACACACACATATATTTATATATC [CACACA_site6366]” to “TATGTATTTTTATGCACACATGCGTGGCTTATATAA [CACACA_site387]”, the “gcPBM binding intensity (ln)” value rises from 7.06 to 7.39.

First: ATATTTTCTTTAAATTGTACATATTGTGATACAAAA [XGTACX_site5886]
Second: ATTTTTTTTTTTTTTTTTTTTTTGTTTATACAAAAT [CACACA_negctrl_site1241]
The “gcPBM binding intensity (ln)” value of the first is higher: 7.18 for the first, 6.78 for the second.

Compared with “TTTCATTTAGCTTTTACACACTATATATTATTGATT [CACACA_site16]”, “TATATACATACATGTAGTACCTAATTCGGTCCCGTA [XGTACX_site2702]” is lower in “gcPBM binding intensity (ln)” value: 7.11 for the first, 6.79 for the second.

Going from “ATATATATATTTGTATGTACATATCATATTGTGTGT [XGTACX_site1580]” to “ATACGTGGGCAAAAAGTGCATATAATCAAAAAAAAA [GTGCAC_site9961]”, the “gcPBM binding intensity (ln)” value rises from 8.43 to 9.03.

Going from “AAGATATTTGAATATACACACGATTTAAATTTAATA [CACACA_site3866]” to “TTCTTTCTGTTTTATTTATAATAATTTATGATAAAA [CACACA_negctrl_site766]”, the “gcPBM binding intensity (ln)” value rises from 6.89 to 7.46.

Compared with “TGTTTTTAATTTCGCACACACCTTGTGGAAAAAAAA [CACACA_site4482]”, “AAAATATTTATTACTTCACACATTATTGTATTTATA [CACACA_site5082]” is lower in “gcPBM binding intensity (ln)” value: 7.36 for the first, 6.87 for the second.

First: CATATATTATTATATGCACACATGAAAATATACAAA [CACACA_site2795]
Second: TTGAAATATACGTAAGTAAATTTCATTTGGTTGTGT [XGTACX_negctrl_site600]
The “gcPBM binding intensity (ln)” value of the first is higher: 7.7 for the first, 6.9 for the second.

First: GTATAACTTTTGCGCGTACACACATTTATCCTCTTT [CACACA_site208]
Second: ACGTATAATATGTACACACACATATATACAAAAAAA [CACACA_site917]
The “gcPBM binding intensity (ln)” value of the first is higher: 7.63 for the first, 7.35 for the second.

Going from “TTTCTTTTTTTATAATCCACATTGGGAAAATCAAAA [TGCATGCA_negctrl_site159]” to “AAAGTTGTTACGAACATACACACGAACATACTCACG [CACACA_site604]”, the “gcPBM binding intensity (ln)” value falls from 6.83 to 6.82.

Going from “TAGAATATCCCCTACACACCCAAATAATTTACAAAT [CACACA_site4825]” to “TTAACATATGACATTTTTTCACCCTTCCTTTATTTT [CACACA_negctrl_site1192]”, the “gcPBM binding intensity (ln)” value falls from 7.03 to 6.71.

Compared with “ATAAAATCATTCAATGGTACAGAAATACAAAATGTA [XGTACX_site6739]”, “TATGTATAAAAATATTGTACATATTATATATATATA [XGTACX_site2947]” is higher in “gcPBM binding intensity (ln)” value: 6.96 for the first, 8.75 for the second.

Compared with “TTTTTTTTTTTTTTTTTTTGATTCTTATAAAAATTT [GTGCAC_negctrl_site240]”, “AGGTCACATTTGTCCTCACACATAGATAAATATATA [CACACA_site5460]” is lower in “gcPBM binding intensity (ln)” value: 7.04 for the first, 6.96 for the second.

Going from “AATTAGCATTAAAAATGTACAAAAGAAAAAAATATA [XGTACX_site3816]” to “GTCAAAAATAATATATGTACTTATAATAGATAAATG [XGTACX_site7755]”, the “gcPBM binding intensity (ln)” value rises from 6.7 to 7.13.

Compared with “ATAATTTGATCAATTTTTCATTTTTCATTTTTTTAA [CACACA_negctrl_site1252]”, “AGAAAGAATGAAAAATGTACATATATGTAATAGCTA [XGTACX_site364]” is higher in “gcPBM binding intensity (ln)” value: 6.68 for the first, 6.97 for the second.

Compared with “TAAAATTTAAAAAGGTGTACACTATAAATTAAAATA [XGTACX_site2081]”, “AATCAAAATTCATTAACACACAATTTTAATATTCTT [CACACA_site5178]” is lower in “gcPBM binding intensity (ln)” value: 7.01 for the first, 6.9 for the second.

Compared with “TTTTTTAAAATATGGACACACATATATATATATGTA [CACACA_site2784]”, TATTTTTATAAGAGCATGCACTGTTTAAAATGGTAT is higher in “gcPBM binding intensity (ln)” value: 7.21 for the first, 8.54 for the second.

First: ATGATATGGATAAATACACACAATAAAATAATGTCT [CACACA_site6786]
Second: TTTATTTATTTATGTTGTACAAGTTTATACTGGAAT [XGTACX_site6479]
The “gcPBM binding intensity (ln)” value of the first is lower: 7 for the first, 7.17 for the second.

First: TTTTAACAAAACAAAACAAAATAATATAAAGATAAC [TGCATGCA_negctrl_site154]
Second: TTTTGATATAAAAAAAGTACATTAATAATATTAATT [XGTACX_site4248]
The “gcPBM binding intensity (ln)” value of the first is higher: 7.36 for the first, 7.07 for the second.

Going from “CAGTATTCTTCTATATGTACTTATTTAAATATTCTT [XGTACX_site7555]” to “TAAATAATAATAAATGTGCACAGGTATTAACAAAAA [GTGCAC_site9988]”, the “gcPBM binding intensity (ln)” value rises from 7.01 to 8.9.
